This passage reports binding signal results from article PMC10668032.

Some of the results follow. At the low end of the ranking, values are background and their order means little.

The target in the assay is SIX1 homeodomain (reference allele) (UniProt Q15475). Briefly: universal protein binding microarray. To be noted: Universal all-10-mer PBM (8x60K, AMADID 030236), 300 nM GST-tagged protein, Alexa Fluor 488 anti-GST; buffer, salt, pH and temperature not stated; high values mean tight binding; most listed sequences are background and not binding sites; double strand, one strand shown.
As to GTAGAACA, the binding signal was -0.0637 E-score.

Take ACCTGAGA: the binding signal was 0.158 E-score. Take AGTACTGG: the binding signal is -0.153 E-score. The value for GTCCAAAC was -0.317 E-score; that for CTTGAAAA was -0.242 E-score; that for AGTAGAAA was -0.0482 E-score.

In the case of TACCCAAA, the binding signal is -0.00297 E-score.

As for CCAGCCCC, the binding signal is -0.0655 E-score.

Turning to AACGACTG, the binding signal is -0.169 E-score. The value for CACTTAGC was -0.173 E-score; that for CGGCACGA was 0.143 E-score.

As to AGGCCATC, the binding signal was -0.115 E-score. The value for CGGGCATA was 0.108 E-score. ATTTCTTA: the binding signal is -0.051 E-score.

On to ACATGCTC, for which the binding signal was -0.249 E-score. The value for AACCCCTC was 0.098 E-score; that for CGCTTGCC was -0.199 E-score; that for CTAGCATC was -0.0401 E-score. The value for AATGCGAA was -0.296 E-score. The value for GACATGCA was -0.0253 E-score. With CCTCCTCA, the binding signal was 0.0671 E-score. Consider GTGACCCA, for which the binding signal is -0.0867 E-score.

Take TACTCCAA: the binding signal turned out to be 0.142 E-score.

CGGCACCC: the binding signal was -0.147 E-score. The value for CGAAGGAC was -0.291 E-score.

CTTGGTTC: the binding signal was -0.11 E-score. The value for CGTCCGAA was -0.23 E-score; that for CGTGATGA was -0.0914 E-score; that for AGGACTAT was 0.0575 E-score. As for CGCACCTA, the binding signal is -0.00069 E-score.

Take CCTCGAAA: the binding signal was -0.131 E-score. The value for GCGATTCA was -0.105 E-score; that for CGAGGTCC was -0.322 E-score. Regarding AAATTCTT, the binding signal was -0.305 E-score. Consider CTAGAAGC, for which the binding signal was -0.0514 E-score. The value for CATTTCAA was -0.138 E-score; that for AAGTCACA was -0.239 E-score; that for CAACCGAA was -0.0628 E-score.

AATCGATT: the binding signal was -0.138 E-score. The value for GTGCTGCA was -0.0432 E-score; that for AAAGACTA was -0.157 E-score. The value for GGCGGTGA was 0.0301 E-score. The value for GGTATGAA was 0.224 E-score. Turning to AGGTACAC, the binding signal was 0.0753 E-score. With ATTAAGCC, the binding signal stood at 0.0815 E-score. The value for CGTCGCTA was -0.115 E-score; that for AGGAGTAG was -0.086 E-score; that for CATTGTTA was -0.0908 E-score. The value for AGTCGACC was 0.00222 E-score; that for CATGATTC was 0.016 E-score. In the case of AATCAAGT, the binding signal is -0.271 E-score. On to AAGGTTAG, for which the binding signal is -0.234 E-score.

Consider ACGGTCGA, for which the binding signal is -0.0318 E-score.

AACCGTGT: the binding signal was -0.0205 E-score.

In the case of TGCACAAA, the binding signal was -0.195 E-score. Take CTATCCAA: the binding signal is 0.0851 E-score. The value for TAGAAGCA was -0.0955 E-score; that for CGAGCCAG was 0.0485 E-score. The value for CAAGACCC was -0.108 E-score. CAAGATTA: the binding signal was -0.0429 E-score. The value for AGTATTCC was 0.121 E-score; that for ATGCCAAA was -0.198 E-score. The value for CGAATCAC was -0.117 E-score. The value for AGGTTAGC was -0.232 E-score; that for GTACCGAA was -0.276 E-score.

In the case of GGAACGCA, the binding signal was -0.134 E-score. The value for TCACGAAA was -0.126 E-score; that for ACTAGTCG was -0.107 E-score.

As for CAAAAAGC, the binding signal was -0.115 E-score. With ATAGGTCC, the binding signal came to 0.105 E-score.

On to CCGTACGG, for which the binding signal amounted to 0.02 E-score.

In the case of AAGGCCAC, the binding signal is -0.277 E-score. The value for TAAGTAAA was -0.212 E-score. Turning to CCGTTCAC, the binding signal is -0.143 E-score. The value for CTGTGTTA was -0.0642 E-score; that for AGACTACT was -0.175 E-score; that for CTCCCGAA was -0.00145 E-score.

On to TACCGTGA, for which the binding signal stood at 0.155 E-score. The value for ACTACCTC was -0.0464 E-score; that for AGGACGAC was -0.144 E-score. The value for ATACGTTC was 0.292 E-score; that for AATTAGTG was -0.0766 E-score; that for ACACAGCC was -0.0914 E-score. On to CTGATACC, for which the binding signal worked out at 0.484 E-score.

Regarding GAGTAGTA, the binding signal stood at 0.111 E-score. The value for CCTATTTA was -0.0475 E-score. Consider GTCCTAAC, for which the binding signal is -0.181 E-score. The value for CGACGACC was -0.218 E-score.

In the case of GAGCAATC, the binding signal was -0.0924 E-score. The value for TATAGTCA was 0.0687 E-score; that for AATAAAAC was -0.159 E-score; that for GGAGCGCA was -0.249 E-score. The value for CTGGCAAA was -0.294 E-score; that for ACCCCAGT was 0.179 E-score; that for CCTGGTAG was -0.0844 E-score. The value for GCCGGTCC was -0.19 E-score; that for ATAACTCC was 0.0181 E-score; that for GACTATGA was -0.0399 E-score. On to CACTCGCA, for which the binding signal was -0.0481 E-score. The value for CATAGTCG was -0.139 E-score; that for AAGGGGCC was -0.22 E-score. The value for AGCCTGGA was -0.176 E-score; that for CTCTCGAA was -0.229 E-score; that for TACGTGAA was 0.0221 E-score.

As to GTAATAAA, the binding signal is -0.123 E-score. The value for ATAGCCGA was 0.149 E-score.

AACCATCT: the binding signal stood at 0.154 E-score. The value for CGCACTCA was 0.015 E-score. GCTGTTAC: the binding signal was -0.382 E-score. The value for AGACCACC was -0.17 E-score. The value for GTTCGAAC was -0.00999 E-score.

Regarding CGTTCCTA, the binding signal was -0.101 E-score. As to AGGAGGAA, the binding signal is -0.166 E-score. The value for GACTCAAA was -0.141 E-score; that for ACTTGAAG was -0.112 E-score. ACTTGTCA: the binding signal was -0.0982 E-score. The value for CATCAACG was -0.148 E-score. The value for TAGTCCGA was -0.182 E-score. As to CCGGAACA, the binding signal was -0.12 E-score. The value for TATTTAAA was 0.133 E-score. The value for AGGTCGCC was -0.177 E-score. The value for AGGGACAT was 0.0455 E-score. With AGTTTGTA, the binding signal is -0.198 E-score.

ATTGCTTA: the binding signal was determined as 0.0943 E-score.

In the case of GACCTTCA, the binding signal was -0.193 E-score.

On to GAACAACC, for which the binding signal was -0.105 E-score. Take AGGTGTTA: the binding signal amounted to 0.203 E-score. The value for CAGTGTAC was -0.144 E-score; that for CTGGCTGC was -0.145 E-score; that for GGTTGAAA was -0.0944 E-score. The value for AGGATTAT was 0.257 E-score. The value for GTCAACAA was -0.0407 E-score; that for GCAACGGA was 0.0437 E-score; that for GATGTCAC was -0.0872 E-score. With CGCATATA, the binding signal was found to be 0.158 E-score. The value for CAGGTTGA was -0.00732 E-score; that for AACAAGGG was -0.225 E-score. The value for GCTACTAC was 0.0636 E-score; that for CGCGTAAA was -0.265 E-score.

Regarding AACTAGGC, the binding signal is -0.197 E-score. The value for GGAGAGAA was -0.25 E-score. The value for GTTATAAA was -0.13 E-score; that for GGCCCATA was -0.0125 E-score; that for ACACACCT was 0.132 E-score. Turning to TAACAACA, the binding signal was -0.187 E-score.

For the sequence CGAACAGC, the binding signal is -0.136 E-score. The value for GGCTGAGA was 0.0491 E-score; that for AGGGACTC was -0.222 E-score; that for GAGTGACC was -0.0311 E-score.

Consider GAAATCAC, for which the binding signal is -0.0941 E-score. In the case of CGGGGCTA, the binding signal came to 0.104 E-score. Turning to AGTTTCTC, the binding signal was -0.121 E-score. As for ATGTGTCC, the binding signal is -0.0824 E-score. As for GGAAAACC, the binding signal is -0.159 E-score.

With GATCGCAA, the binding signal worked out at 0.242 E-score. The value for ACAGCTCG was -0.122 E-score. The value for TGCCCACA was -0.208 E-score; that for GCACCTAC was -0.268 E-score. The value for CAAATCAC was -0.179 E-score; that for AGTAACGG was -0.11 E-score. Turning to CTATTGAA, the binding signal is -0.194 E-score. The value for ACAAGCCG was -0.186 E-score. The value for GTGCAGGA was -0.0837 E-score; that for TACACTCA was 0.0336 E-score. The value for CCTCTCTC was -0.0605 E-score; that for ACCAGATG was -0.0274 E-score. Regarding CATTGTAG, the binding signal is -0.0567 E-score. The value for GCAATACA was 0.119 E-score; that for CACGTGTC was 0.0339 E-score. The value for AAACTCAT was -0.119 E-score; that for AACAGGTC was -0.286 E-score.

Turning to ACCTGACC, the binding signal was determined as 0.0357 E-score.
